Some of the results follow.
Test system: PfSIP2 AP2 domain 1 (GST-tagged)
Test: gcPBM binding intensity (ln(normalized median fluorescence intensity)); higher = stronger DNA binding
Summary of the method: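 In this array assay, P. falciparum DNA-binding domains with a GST tag, expressed in E. coli, were applied for 1 h to primer-extended double-stranded 36-bp intergenic genomic probes and negative controls on an Agilent 4 × 180k array. Bound protein was visualised with Alexa488 anti-GST antibody at 488 nm. Binding intensity is the highest Masliner-normalised natural-log median intensity across replicate spots of either probe orientation.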

Sequence | gcPBM binding intensity (ln)
CACAGACATATATATACACACTTTTATTTAAATAAC [CACACA_site4962] | 7.22
TTTTTGTATCCTTCTTCTTTTTCCAGACTACATTAT [XGTACX_negctrl_site216] | 7.22
AAAAAAAAAATGTGCACACGCGTACACCCAAAAAAA [CACACA_site5149] | 9.88
TATAAAAATAATATTACACACATGTAAAATGGCTGT [CACACA_site5755] | 6.81
CATATACTCGGACACACACACACACCGACAAAAAAA [CACACA_site4433] | 7.48
TTTATAGTTTTTAATAGTACACATATTTTTAAGTAT [XGTACX_site5498] | 7.22
TTTTGTGGAGGATGGTGTACGGTATTGTATTATTAC [XGTACX_site1942] | 7.3
TATCATAAAATATGTAGTACGTATATATATAAAAAT [XGTACX_site5455] | 7.37
TAAACAGACATACATACACACATACATACAGACATA [CACACA_site6997] | 7.13
AAAAAAAAAGTATATATATATTTAAGGAATTCTCTC [GTGCAC_negctrl_site454] | 6.77
ATATATATATATTGCACACATATAAATATATATATT [CACACA_site807] | 9.22
AATATATAGCTAAAAACACACAAATATATACTCATA [CACACA_site5904] | 6.87
ATACATTTTTTTTTCACACATATATATATATTTAAT [CACACA_site5995] | 7.43
CTCACGTAGCTTGATGCATGCAAACTTGAGTAAAAG [TGCATGCA_site409] | 7.04
TTTATAAAATTTATTGCACACAATTATTTTATAATT [CACACA_site2489] | 6.93
CATTTTTAAAAAAATTGTACAAAACATATATGTGTA [XGTACX_site3396] | 6.94
TATTAAAAGTAAAAAACACACATGGATATATACATA [CACACA_site3959] | 6.84
TTCCTTTTGAACTCTCGTACGCGTAGGTGTTATTAT [XGTACX_site6264] | 7.02
GTTGTGTAATTCGTAACACACATAAAATATAAATAA [CACACA_site7799] | 7.01
AAAAAAAAAAAAAAAAAAAAAAAAATATATATATAT [CACACA_negctrl_site436] | 8.86
TTACTATATAATATGTGTACACAACATATAATATAT [XGTACX_site1383] | 7.17
TTTTTTTTTTGATGTTGTACTTATATACTATATAAT [XGTACX_site2778] | 7.02

Sequence | gcPBM binding intensity (ln)
TAAATAAATAAAAAAACACACATATAAATATAAATA [CACACA_site7815] | 6.86
TGTTTCCTATTTTGTATGCACTTTTTGTCATAATTA [GTGCAC_site9921] | 8.28
TATGTGTGACAAAATTGTACGGTCTCTTTATTTTGT [XGTACX_site2679] | 6.95
TATACGGACTCTAAGTGTACTTAAAATAATTCAAAC [XGTACX_site3606] | 7.51
ATTTTTATACCTAAGTGTACATGATGTTTTCTTTTT [XGTACX_site973] | 6.97
TATATTGCCCTTCACACACACACATATATATATATA [CACACA_site2492] | 9.62
TAAAAATGTTGACACACACACATAAATATATTTTAT [CACACA_site7227] | 6.98
TATTATATAATAAAAATTATTATTATTTGTATAAAT [CACACA_negctrl_site195] | 6.73
TATATATATATATATATACACACGTATATATATACA [CACACA_site4155] | 9.4
ATATCTTTGCAAAGATGTACTTGTAAAAATATATGA [XGTACX_site768] | 7.11
TAATATCAATATAAAGTACACACTATAGTATGTATT [CACACA_site2280] | 6.99
TAAAAGTAAAGACATGCATGCATTGGTATCTTTTAC [TGCATGCA_site665] | 6.52
TATAATAAAACTTTTACACACTTTAAAAAAAAAAAA [CACACA_site6392] | 6.89
GACCCACTTTTCTGCACACATAAAAAATATATAAAT [CACACA_site4483] | 8.57
TTTATATTTAAATATATATGAGAAAACACAAAATAT [TGCATGCA_negctrl_site211] | 7.34
GCTTCATTTTAAACTTGTACTTATTTTTTGGTAAAT [XGTACX_site8879] | 7.6
TAGTTACTTCTTATATAAAATATGTATATAAAAATA [GTGCAC_negctrl_site190] | 6.95
TTGTTTGTTGTAACGTGTACAGATAAAAATAAAGGG [XGTACX_site375] | 7.73
TTCATATTATAGTGCACACAAAAATATATATATGGT [CACACA_site2855] | 10.7
TCTCTCATTTATTTTTGTACTTAATCCAGCACGTTT [XGTACX_site1369] | 7.08
ACATATTAATTATAAAGTACATATATATATATATAT [XGTACX_site4540] | 9.76
AAATTATCTTAATAGGATGTTCAAGGAGAAAGATGA [CACACA_negctrl_site1032] | 7.14

Reference: the supplement of paper PMC11417369
